Publication PMC12136788
The list shows a part of the results.

T1: UNK ZnF1-3 (human, UniProt Q9C0B0 31-174)
T1 sequence: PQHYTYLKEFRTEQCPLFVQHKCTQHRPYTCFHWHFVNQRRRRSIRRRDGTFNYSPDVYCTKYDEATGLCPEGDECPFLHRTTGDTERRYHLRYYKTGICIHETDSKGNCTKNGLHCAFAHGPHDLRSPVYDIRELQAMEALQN

B1: chr18:48447474:48447475:+_ENSG00000082212_ENST00000321341|hu_mus|motif|central (ssRNA)
RNA: GGGAGUUCUACAGUCCGACGAUCCCAGAUCUUUCUCUGCGCCUCCUCUUCUGAGAGACCACUUUCCACCAUUGAUAGAACGGUGAGAUUGGCAAUUCCAAGUGCAGCUUCUCCUGCUCCAAGAAAUAAGAUUUUGUGUUCUGACAACAGAGGAUUGAGCAUCA
B2: chr2:122485053:122485054:-_ENSG00000155438_ENST00000285814|hu_hu|motif|central (ssRNA)
RNA: GGGAGUUCUACAGUCCGACGAUCUCAACUUUCUAUCCAGGCAGAGUAAACUAAGGAGAGCUAUGAAAUAUCAAAAGAAAACGGGAGGCCAGGACAAAGAGGCAAUGUCAGCCAAGCCACUGCAAGAUGGUAUGCACCCCUGUACAACAGAGGAUUGAGCAUCA
B3: chr13:42873775:42873776:+_ENSG00000023516_ENST00000025301|hu_hu|motif|central (ssRNA)
RNA: GGGAGUUCUACAGUCCGACGAUCAGAAGACGAAAAAAAUGUUUUCUGUAAAUCACUAUCUUUAUCUGAAGCAUUAGAUGACCGGUAGAAACUCCUUUGGGUCCAAGGCUCUGAAAUUGAUGUUGUGACUGAAGUUUUCACAGACAACAGAGGAUUGAGCAUCA
B4: chr19:36145531:36145532:+_ENSG00000126267_ENST00000246554|hu_mus|FALSE|FALSE (ssRNA)
RNA: GGGAGUUCUACAGUCCGACGAUCAUCCCAGGCUGAGACCCAUGACACGGGACAGAGGGACUUGUACACACGCCGGUACCACUCACACACGGAGACAUCACCCCCCUUGGCCGUCAUUGCCUUCUCACAGCGGUGGAAGUCCAGCAACAGAGGAUUGAGCAUCA
B5: chr19:16212804:16212805:+_ENSG00000167460_ENST00000300933|hu_mus|hu_hu_hu_mus_False|28_48 (ssRNA)
RNA: GGGAGUUCUACAGUCCGACGAUCAACAAUUCUGGAGUGAAGGAAAGAUGUAACAUGGAACAGCAUUAAAGCUCAGUCAGAAGGCACGUGGGUAAUUAUGAUCACCCCCCAAGCAUUGCUUGGAAUGCUUAAAGACAAUCUGUUCAACAGAGGAUUGAGCAUCA
B6: chr18:32579733:32579734:+_ENSMUSG00000024381_ENSMUST00000025239|mus_hu|FALSE|FALSE (ssRNA)
RNA: GGGAGUUCUACAGUCCGACGAUCCUUGUGGAAGUUUUCCUCCAGGCCCGCGAUGCUCUGGAACGUGUUGACGUAGAAACCUACGCGGCUGUUCCACAGGGACGGCAGCUCCUCCUGCAGAUCCACAUUCAUCUCCUCAAACACCAACAGAGGAUUGAGCAUCA

These binders were tested against T1, UNK ZnF1-3 (assay: nsRBNS (natural sequence RNA bind-n-seq); RBNS binding buffer (assumed for nsRBNS): 25 mM Tris pH 7.5, 150 mM KCl, 3 mM MgCl2, 0.01% Triton X-100, 500 ug/ml BSA, 20 U/ml SUPERase-In, 4 C; UNK is unkempt and MSI1 is Musashi-1; names of the RNAs are library labels; protein concentration not given here; high values mean tight binding).

Binder | binding signal [enrichment R]
B1 | 0.712
B2 | 1.73
B3 | 0.868
B4 | 1.32
B5 | 1.12
B6 | 0.702
